Experimental data reported in PubChem BioAssay AID651820 (National Center for Advancing Translational Sciences (NCATS), 2012).
Screen size: about 340,000 compounds; about 12,000 (3.5%) were called active. Inconclusive results, whose numbers are uncertain, are shown with a selection of clear calls. Calls come from the whole dose curve; as a rule, active = well fitted inhibition curve with a large enough effect; inconclusive = small, poorly fitted or top-dose-only effect, or another doubt; inactive = no such curve, though single readings can be large or run the other way. Potencies of inconclusive entries are left out as doubtful fits.
% is set by controls: 0 for no effect and ±100 for the full control effect; potency is the fitted concentration of half-maximal effect; tags give direction and shape of the fitted curve.

Experiment: qHTS Assay for Inhibitors of Hepatitis C Virus (HCV)
Settings: Huh7.5.1 HCVcc-Cre (HCVcc is cell-culture hepatitis C virus) infection, luciferase reporter, 44 h; activity change, negative = inhibition: at 41.8 µM (top of the series) unless noted
Summary of the method: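 Infectious HCVcc-Cre (~0.5 moi) was added to cells just after compound, with cells seeded 4 h earlier at 1,000 per well. Luciferase activity after 44 h culture reported infection; substrate was incubated 15 min at room temperature before reading.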
For CCCn1nnc(NCc2ccc(OCc3cccs3)c(OC)c2)n1, the Potency was inconclusive [inhibitor, partial curve].
For CN1CCN(S(=O)(=O)c2cccc(C(=O)Nc3sc4c(c3-c3nc5ccccc5[nH]3)CCCC4)c2)CC1, the Potency was active: 3.55 µM.
With CCCN(CC(=O)Nc1cc(Cl)ccc1Cl)C(=O)/C=C/c1cc(OC)ccc1OC the Potency was inconclusive [inhibitor, partial curve].
For O=C(Nc1ccc(F)cc1)c1cccc(N2C(=O)C3C4C=CC(C5CC45)C3C2=O)c1 (centres undefined), the Potency was inconclusive [inhibitor, single point].
With COc1ccccc1C(=O)NNC(=O)c1nn(Cc2ccccc2)c(=O)c2ccccc12 the Potency was inconclusive [inhibitor, single point].
For CCCC(C(=O)Nc1cc(S(=O)(=O)N2CCOCC2)ccc1OC)c1ccccc1 (centres undefined), the Potency was “inactive”.
With COc1ccc(NC(=O)CN(C)CC(=O)Nc2sc3c(c2C(N)=O)CCC3)cc1 the Potency was inconclusive [inhibitor, full curve].
In the case of Cc1ccccc1CSc1ncnc2ccccc12, the Potency was inconclusive [inhibitor, partial curve].
In the case of CCn1nc(C(=O)OCC(=O)N2CCc3ccccc32)c2ccccc2c1=O, the Potency was “inactive”.
In the case of CSc1nc2nc(C(F)(F)F)cc(-c3ccccc3)n2n1, the Potency was “inactive”.
With C=CCOc1c(Br)cc(/C=N/O)cc1OCC the Potency was inconclusive [inhibitor, full curve].
In the case of COc1ccc(-c2cc(C(=O)Nc3cccnc3)no2)cc1OC, the Potency was inconclusive [inhibitor, single point].
For Cc1cccc(NC(=O)C2CCN(S(=O)(=O)c3cccc4nsnc34)CC2)n1, the Potency was “inactive”.
For COC(=O)/C(=N/Nc1ccc(C)cc1)N1CCCc2ccccc21, the Potency was inconclusive [inhibitor, partial curve].
With Cc1cccc(NC(=O)c2cn(-c3ccccc3)nc2-c2ccccc2)c1 the Potency was inconclusive [inhibitor, full curve, poor fit].
In the case of O=S(=O)(NC1c2cccc3cccc(c23)C1N1CCNCC1)c1ccccc1 (centres undefined), the Potency was inconclusive [inhibitor, single point].
For CC(C)N1CCC(N2CCN(Cc3ccc(-c4ccccc4Cl)o3)CC2CCO)CC1 (centres undefined), the Potency was active: 3.98 µM.
For CCOC(=O)C1=C(COC(=O)c2c(OC)cccc2OC)NC(=O)NC1C (centres undefined), the activity change, negative = inhibition was inconclusive: -59.3% [inhibitor].
In the case of CCCN1C(=O)c2ccccc2NC1c1ccc(OC)c(CSc2ccccn2)c1 (centres undefined), the Potency was inconclusive [inhibitor, single point].
With O=C(CCSCCC(=O)NN=Cc1ccc(F)cc1)NN=Cc1ccc(F)cc1 the Potency was inconclusive [inhibitor, single point].
In the case of O=C(CCCN1C(=O)/C(=C/c2cccs2)SC1=S)NNC(=O)c1ccccc1O, the Potency was inconclusive [inhibitor, full curve].
In the case of COCCOC(=O)c1c(N)n(Cc2ccc(OC)cc2)c2nc3ccccc3nc12, the Potency was inconclusive [inhibitor, partial curve].
With COc1ccc2c(Cl)c(C(=O)NCCCn3ccnc3)sc2c1Cl the Potency was inconclusive [inhibitor, single point].
For CCOCCCN(C)C1CCN(C(=O)c2oc3ccccc3c2NC(=O)Cc2ccc([N+](=O)[O-])cc2)CC1, the Potency was “inactive”.
For O=C(COC(=O)c1ccc(Br)cc1)Nc1ccccc1Br, the Potency was “inactive”.
In the case of CCN(CC)S(=O)(=O)c1ccc(C(=O)C(C#N)c2ccccn2)cc1 (centres undefined), the Potency was active: 10 µM.
With O=C(COC(=O)c1cc([N+](=O)[O-])ccc1N1CCOCC1)c1ccc(OC(F)F)cc1OC(F)F the Potency was inconclusive [inhibitor, full curve, poor fit].
For Cc1cccc(-n2c(/C=C/c3ccc([N+](=O)[O-])o3)nc3ccccc3c2=O)c1, the Potency was active: 10 µM.
With CC(=O)c1cccc(NC(=O)c2ccc(OCc3c(C)noc3C)cc2)c1 the Potency was inconclusive [inhibitor, full curve, poor fit].
In the case of CCN(CC(=O)Nc1ccc(NC(C)=O)cc1)C(=O)c1ccc(NC2CC2)c([N+](=O)[O-])c1, the Potency was inconclusive [inhibitor, full curve].
In the case of O=C(CNCc1ccccn1)Nc1cc(S(=O)(=O)N2CCCCC2)ccc1Cl, the Potency was inconclusive [inhibitor, single point].
With O/N=C(\C[n+]1ccccc1)c1ccc(Br)cc1 the Potency was inconclusive [inhibitor, partial curve].
In the case of N#Cc1c(C#N)c(-c2ccccc2)n(-c2ccccc2)c1N, the Potency was inconclusive [inhibitor, partial curve].
For CCc1ccc(S(=O)(=O)NC(=S)Nc2ccccc2)cc1, the Potency was “inactive”.
For Cc1ccccc1NC(=O)c1sc2nc3c(c(-c4ccco4)c2c1N)CCCC3, the Potency was inconclusive [inhibitor, partial curve].
In the case of Cc1ccc(OCc2nc(C#N)c(N3CCN(Cc4ccccc4)CC3)o2)cc1, the Potency was inconclusive [inhibitor, single point].
For COc1ccc(-c2cc(C(=O)NCC3CCCO3)on2)cc1OC (centres undefined), the Potency was “inactive”.
For CC1CCN(CCCCOc2cccc(Br)c2)CC1, the Potency was inconclusive [inhibitor, partial curve].
With CCN(CC)S(=O)(=O)c1ccc2oc(Nc3ccc4c(c3)OCCO4)nc2c1 the Potency was active: 10 µM.
In the case of Cc1ccc(Sc2c(CO)c(-c3ccccc3)nn2C)cc1, the Potency was inconclusive [inhibitor, single point].
In the case of Cc1ccc(S(=O)(=O)/N=C(/Nc2cccc(C(=O)O)c2)c2ccccc2)cc1, the Potency was “inactive”.
For Cc1nn(Cc2c(F)c(F)c(F)c(F)c2F)c(C)c1NC(=O)c1c([N+](=O)[O-])cnn1C, the Potency was inconclusive [inhibitor, single point].
With Clc1ccc2oc3c(Cl)ncnc3c2c1 the Potency was inconclusive [inhibitor, single point].
For O=c1[nH]c(=O)n(-c2ccccc2)c2c1C(C(F)(F)F)(C(F)(F)F)N=C(CCC1CCCCC1)N2, the Potency was inconclusive [inhibitor, single point].
